# Measured values from paper PMC4336329 (PLoS ONE, 2015).
# The whole screen tested about 310,000 compounds, of which about 14,000 (4.5%) showed an effect of 50% or more. Effects have a minus sign here. This is one part of the list.
# Biological target: human ether-à-go-go-related gene (hERG) potassium channel (human, UniProt Q12809)
# Assay: primary screen, population patch clamp on CHO cells stably expressing hERG
# 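Also: peak tail current of the secondary pulse compared with the same well before compound.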
# Chain of human ether-à-go-go-related gene (hERG) potassium channel (Q12809 whole entry, looked up): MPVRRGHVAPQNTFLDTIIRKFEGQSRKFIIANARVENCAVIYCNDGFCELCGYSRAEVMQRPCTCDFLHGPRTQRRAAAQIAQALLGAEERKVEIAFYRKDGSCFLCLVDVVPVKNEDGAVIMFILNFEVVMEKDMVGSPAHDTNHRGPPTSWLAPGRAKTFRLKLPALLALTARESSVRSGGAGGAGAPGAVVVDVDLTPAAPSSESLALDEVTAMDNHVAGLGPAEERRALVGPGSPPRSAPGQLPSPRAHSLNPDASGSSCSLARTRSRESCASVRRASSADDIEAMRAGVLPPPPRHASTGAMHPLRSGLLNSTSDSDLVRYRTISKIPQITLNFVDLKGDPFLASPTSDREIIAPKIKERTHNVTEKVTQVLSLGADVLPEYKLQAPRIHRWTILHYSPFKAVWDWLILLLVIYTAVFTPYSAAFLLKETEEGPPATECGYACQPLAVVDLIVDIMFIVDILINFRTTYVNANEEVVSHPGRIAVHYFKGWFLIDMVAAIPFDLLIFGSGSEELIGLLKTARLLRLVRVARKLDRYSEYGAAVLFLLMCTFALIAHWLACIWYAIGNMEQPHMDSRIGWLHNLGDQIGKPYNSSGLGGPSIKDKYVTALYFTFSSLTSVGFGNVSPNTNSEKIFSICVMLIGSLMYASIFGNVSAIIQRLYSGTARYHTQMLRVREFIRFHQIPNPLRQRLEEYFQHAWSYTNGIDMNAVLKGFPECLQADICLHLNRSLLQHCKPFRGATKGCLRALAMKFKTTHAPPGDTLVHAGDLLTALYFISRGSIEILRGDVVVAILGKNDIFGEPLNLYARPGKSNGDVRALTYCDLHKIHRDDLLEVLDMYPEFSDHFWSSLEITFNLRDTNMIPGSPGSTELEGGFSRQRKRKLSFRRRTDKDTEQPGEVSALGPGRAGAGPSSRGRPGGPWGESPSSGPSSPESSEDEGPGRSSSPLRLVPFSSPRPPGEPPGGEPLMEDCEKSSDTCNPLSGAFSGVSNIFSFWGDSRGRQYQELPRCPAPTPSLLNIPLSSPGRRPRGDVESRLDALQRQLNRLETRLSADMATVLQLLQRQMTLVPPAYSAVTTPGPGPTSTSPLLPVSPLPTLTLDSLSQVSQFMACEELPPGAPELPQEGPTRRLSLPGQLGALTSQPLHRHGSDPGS
row,Compound,"hERG current change (%, negative = inhibition) at 10uM"
1,CCC(C)NC(=O)C1c2ccccc2C(=O)N1Cc1ccc(F)cc1 (stereo not shown),-7.66%
2,CC(C)CN1C(=O)C(=Nc2cccnc2)c2ccccc21,8.8%
3,CC(=O)NC(NC(=S)Nc1ccccc1Br)C(Cl)(Cl)Cl (stereo not shown),9.71%
4,O=C(Nc1ccccc1Cl)c1ccc(COc2ccc3c(c2)CCC3)cc1,23.7%
5,Cc1ccc(C(=O)NNC(=S)NC(=O)c2ccc(Cl)cc2)cc1,7.16%
6,COc1ccc2oc(=O)cc(C)c2c1,1.74%
7,CN1C(=O)/C(=C/c2ccccc2OCc2cccc(F)c2)N(C)C1=S,6.02%
8,CCOC(=O)c1[nH]ncc1CN1CCCC(C(=O)c2cccc(Cl)c2)C1 (stereo not shown),-22.6%
9,O=C(NC1CCCc2ccccc21)C1CCC(CNc2c(N3CCOCC3)c(=O)c2=O)CC1 (stereo not shown),14.9%
10,COc1ccc(OCC(=O)Nc2cc3c(cc2C(=O)O)OCCCO3)cc1,21.8%
11,CN(CC(=O)Nc1ccc(F)c(Cl)c1)S(=O)(=O)c1ccc2c(c1)n(C)c(=O)c(=O)n2C,14.9%
12,Cc1nc2c(N=Nc3ccccc3F)c(N)nn2c(N)c1C#N,11.3%
13,COC(=O)[C@H](Cc1c[nH]c2ccccc12)NC(=O)CCCc1c[nH]c2ccccc12,-1.78%
14,CCn1cc(CN2CCCC(C(=O)c3cccc(OC)c3)C2)c(C)n1 (stereo not shown),-21.3%
15,CCNC(=S)N(CCc1c(C)[nH]c2ccc(C)cc12)Cc1cccs1,11.4%
16,O=C(Cn1c(=O)oc2ccccc21)Nc1cccc(Cl)c1,-6.06%
17,CNC(=O)NNC(=O)c1onc(-c2c(Cl)cccc2Cl)c1C(=O)OC,10.6%
18,Cc1cc(O)c(-c2ccno2)cc1Cl,13%
19,Cc1c(NC(=O)/C=C/c2cn(-c3ccccc3)nc2-c2ccc(F)cc2)c(=O)n(-c2ccccc2)n1C,7.47%
20,O=C(NCc1cccs1)c1cc(S(=O)(=O)N2CCOCC2)ccc1N1CCCC1,-32.5%
21,CCCCOc1cccc(C(=O)Nc2ccc(S(=O)(=O)Nc3cc(C)on3)cc2)c1,2.15%
22,COc1ccc(N2CCN(C(CNC(=O)C(=O)NC3CCCC3)c3ccco3)CC2)cc1 (stereo not shown),-14.7%
23,O=C(NCc1ccccn1)c1ccc2c(=O)n(CCc3ccccc3)c(=O)[nH]c2c1,8.63%
24,COc1ccc(CCNC(=O)C2CCN(c3ccc(N4CCOCC4)nn3)CC2)c(OC)c1,0.848%
25,Cc1ccc(C)c(S(=O)(=O)N2CCN(C(=O)c3ccc(N4CCCC4)c([N+](=O)[O-])c3)CC2)c1,-9.46%
26,O=C(Cn1cnc2c(nnn2-c2ccccc2)c1=O)N1CCOCC1,-0.495%
27,COc1cc(NC(=S)N2CCN(c3ccccn3)CC2)cc(OC)c1OC,-1.95%
28,Cn1cccc1CC(=O)N/N=C/c1cccc2ccccc12,12.3%

row,Compound,"hERG current change (%, negative = inhibition) at 10uM"
1,CC(Sc1nnc(Cc2cccs2)n1C1CCCCC1)C(=O)NCc1ccco1 (stereo not shown),-5.59%
2,C=CCn1c(C)c(C(C)=O)c(N2CCN(C(c3ccccc3)c3ccccc3)CC2)nc1=S,17.4%
3,Cc1ccccc1NC(=O)C1CC(=O)N(c2ccc3c4c(cccc24)CC3)C1 (stereo not shown),4.88%
4,C=CCn1cc(C(=O)c2cc(Br)ccc2O)cc(C#N)c1=O,-17.5%
5,O=C(COc1ccc(F)cc1)N1CCCc2ccccc21,2.02%
6,CCOC(=O)C1CCCN(C(c2ccccn2)c2c(C)[nH]c3ccccc23)C1 (stereo not shown),-54.3%
7,CCOC(=O)C(=O)/C(C#N)=C/Nc1ccc(Cl)cc1,16.1%
8,Cc1c(Cl)cccc1NC(=O)c1cc(C2CC2)on1,-21.2%
9,Cc1cc(C)nc(NC(=O)c2ccc(Cl)cc2Cl)n1,7.52%
10,Cc1c(/C=N/Nc2ccc(C(=O)O)cc2)c2ccccc2n1C,1.41%
11,Cc1cc(Cl)ccc1OCC(=O)NC(=S)Nc1ccc(Cl)cn1,10.9%
12,COc1ccc(OCCOC(=O)C(C)NS(=O)(=O)c2ccc(NC(C)=O)cc2)cc1 (stereo not shown),-7.73%
13,O=C(CN(Cc1ccco1)C(=O)c1ccc(Cl)cc1)Nc1c(Cl)cc(Cl)cc1Cl,7.76%
14,CN(C)S(=O)(=O)N1CCC(CO)(Cc2cccc(C(F)(F)F)c2)CC1,-4.25%
15,CC(=O)N1CSCC1C(=O)NNS(=O)(=O)c1ccccc1 (stereo not shown),6.44%
16,CC(Sc1nccn1C)C(=O)NC1(C#N)CCCCC1 (stereo not shown),6.19%
17,CCCSc1cc(N)cc([N+](=O)[O-])c1,-7.57%
18,C#CCOCCOCCOCCNc1nc(N2CCN(C(=O)[C@H]([C@@H](C)CC)n3cc([C@@H](N)CO)nn3)CC2)nc(N2CCN(C(=O)[C@H](Cc3ccc(O)cc3)n3cc([C@@H](N)C(C)CC)nn3)CC2)n1.Cl (stereo partly shown),0.411%
19,CCC(C)[C@@H](C(=O)N1CCNCC1)n1cc(CCCCN)nn1.Cl (stereo partly shown),32.8%
20,COc1cccc(/C=N/n2nnnc2N)c1,9%
21,CCOC(=O)/C=C(\C)Nc1cc(C)nn1-c1ccccc1,3.84%
22,CC1CCCN(CCOCCOc2ccc(Br)cc2Cl)C1.O=C(O)C(=O)O (stereo not shown),-71%
23,COc1ccccc1NC(=O)NNC(=O)c1ccc2ccccc2c1,24.4%
24,O=C(NCCO)c1cc([N+](=O)[O-])cc2c1C=Cc1ccccc1O2,-31.4%
25,Cc1cccc(N2C(=O)/C(=C/c3ccc(N4CCN(C)CC4)o3)C(=O)NC2=S)c1C,4.19%
26,COc1ccc(N(Cc2cc3cccc(C)c3[nH]c2=O)S(=O)(=O)c2ccc(Cl)cc2)cc1,17.4%
27,CCn1c(-c2cccc(S(=O)(=O)N3CCCC3)c2)n[nH]c1=S,0.861%
